About 4,000 (4.3%) of roughly 94,000 compounds were called active. The shares of active, inactive and inconclusive entries below differ from those in the screen. The call rests on the fitted dose curve; in most records, active means well fitted inhibition curve with a large enough effect; inconclusive means small, poorly fitted or top-dose-only effect; inactive means no such curve, though single readings can be large or run the other way. Potencies of inconclusive entries are doubtful fits and often do not repeat.
Experiment: Cytotoxic Profiling in NIH 3T3 Cell Line of Diverse Libraries Using Quantitative High-Throughput Screening; further: nearly all actives have a fitted effect of over 55% in size
Settings: NIH 3T3 viability, CellTiter-Glo ATP luminescence, 48-72 h; series mostly up to 96.7 µM
In short: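 Cytotoxicity was measured by CellTiter-Glo ATP luminescence after 48 or 72 h compound exposure at 37 °C. Mouse NIH 3T3 fibroblasts were seeded at 400 cells/well and dosed by 23 nL pin transfer.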
Potency means the concentration at half of the fitted maximal effect; tags describe the fitted curve by direction and shape.

Q: Which Potency does the source give for `CSc1ccc(-c2cccc(CN3CCC(N[S+](=O)([O-])c4ccccc4)CC3)c2)cc1` here?
A: active: 15.8 µM

Q: For `Cc1ccc(-c2noc([C@@H]3C[C@H](NC(=O)COc4ccccc4)CN3C)n2)cc1`, which Potency is on record?
A: inconclusive: 112 µM [inhibitor, partial curve]

Q: Which Potency does the source give for `Cc1cnc(CC2CCN(S(=O)(=O)c3cccs3)C2)n1CC1CC1` (configuration not stated) here?
A: inactive

Q: For `COC(=O)CNC(=O)c1cc(-c2cccc(C(F)(F)F)c2)nc2c1cnn2C`, which Potency is on record?
A: inconclusive: 70.8 µM [inhibitor, single point]

Q: For `COCCN1CCOc2nc(-c3cccc(OC)c3F)ncc2C1=O`, which Potency is on record?
A: inconclusive: 126 µM [inhibitor, partial curve, poor fit]

Q: For `O=C(N1CC(N(Cc2ccncc2)CC2CC2)C1)C1(c2ccccc2)CC1`, which Potency is on record?
A: inactive

Q: For `CCCc1noc(-c2ccn3c(CNC(=O)C(C)Oc4ccccc4)nnc3c2)n1` (configuration not stated), which Potency is on record?
A: inconclusive: 44.7 µM [inhibitor, partial curve, poor fit]

Q: For `COc1ccc(CC(=O)Nc2ccc(=O)n3c2[C@@H]2C[C@@H](CN(C(=O)Nc4ccc(F)cc4)C2)C3)cc1`, which Potency is on record?
A: inconclusive: 79.4 µM [inhibitor, single point]

Q: With `CC(C)Nc1ncc(C(=O)NC2CC(=O)N(Cc3cccc(F)c3)C2)cn1` (configuration not stated) as the compound, how does the Potency read?
A: inactive

Q: With `O=C(CCC[C@@H]1[C@H]2CCCN3CCC[C@@H](CN1C(=O)c1cccnc1)[C@@H]23)NCCN1CCCCC1` as the compound, how does the Potency read?
A: inactive

Q: For `COc1cccc(-c2ccc(C(=O)NCCNC(=O)c3ccc(Cl)cc3)cc2)c1`, which Potency is on record?
A: inactive

Q: Which Potency does the source give for `CC(=O)Nc1ccc(S(=O)(=O)N[C@H]2C[C@@H](c3nc(C)no3)N(C)C2)cc1` here?
A: inactive

Q: Which Potency does the source give for `Cc1nnc(-c2cc(C(=O)NC3CCOCC3)ccn2)n1CCc1ccccc1` here?
A: active: 89.1 µM

Q: With `C[C@@H]1CN(C(=O)Cc2cc3c(cc2Cl)OCCO3)C[C@@]1(O)C1CCC1` as the compound, how does the Potency read?
A: inconclusive: 89.1 µM [inhibitor, single point]

Q: Which Potency does the source give for `O=C(Cc1ccccc1)NCC1CN(Cc2cccc(Cl)c2)CC12CN(c1ccccc1)C2` (configuration not stated) here?
A: inconclusive: 70.8 µM [inhibitor, single point]

Q: For `CC(C)(C)c1cnc([C@@H]2COCCN2CC2CC2)[nH]1`, which Potency is on record?
A: inactive

Q: For `CCC1Oc2ccc(NC(=O)Cc3ccc(OC)cc3)cc2CN(Cc2ccc3c(c2)OCO3)C1=O` (configuration not stated), which Potency is on record?
A: inconclusive: 14.1 µM [inhibitor, full curve]

Q: Which Potency does the source give for `CC(C)NC(=O)N1CCOc2ccc(CCC(=O)NC3CCS(=O)(=O)C3)cc2C1` (configuration not stated) here?
A: inactive

Q: Which Potency does the source give for `CC(=O)Oc1ccccc1C(=O)Nc1ccc2c(c1)CN(Cc1ccc(Cl)cc1)C(=O)C(C)O2` (configuration not stated) here?
A: active: 25.1 µM

Q: For `O=C(NCC(F)F)C1CCCN1c1nc2ncccc2o1` (configuration not stated), which Potency is on record?
A: inactive

Q: For `CC(C)(C)C(=O)N1CCOC[C@H]1c1ncc(-c2ccc(OC(F)(F)F)cc2)[nH]1`, which Potency is on record?
A: inconclusive: 100 µM [inhibitor, single point]

Q: Which Potency does the source give for `COc1ccc(Nc2ccnc(N3CCC(C(=O)N4CCN(Cc5ccccc5)CC4)CC3)n2)cc1` here?
A: inconclusive: 44.7 µM [inhibitor, partial curve, poor fit]

Q: With `Cc1ccccc1-c1ccc(COc2ccc3c(cnn3CCC(=O)O)c2)cc1` as the compound, how does the Potency read?
A: inconclusive: 89.1 µM [inhibitor, partial curve, poor fit]

Q: For `O=C(O)COc1ccc(-c2nccc3c2C(=O)N(Cc2c[nH]c4ccccc24)CC(CNC(=O)Cc2ccccc2)O3)cc1` (configuration not stated), which Potency is on record?
A: inconclusive: 50.1 µM [inhibitor, partial curve, poor fit]

Q: Which Potency does the source give for `O=C(NCc1cccs1)C1CCc2nc(N3CCN(C(=O)C4CCC4)CC3)sc2C1` (configuration not stated) here?
A: inactive

Q: Which Potency does the source give for `COC(=O)[C@@H]1Cc2c([nH]c3ccccc23)[C@H]2C[C@@H](NCCCn3ccnc3)C[C@@H](c3ccccc3)N21` here?
A: active: 20 µM

Q: For `COc1ccc(C)cc1NC(=O)CCC[C@@H]1[C@H]2CCCN3CCC[C@@H](CN1Cc1cccnc1)[C@@H]23`, which Potency is on record?
A: inactive

Q: With `O=[S+]([O-])(c1ccccc1)N1CCCN(c2ccnc3ccnn23)CC1` as the compound, how does the Potency read?
A: inconclusive: 50.1 µM [inhibitor, partial curve, poor fit]

Q: Which Potency does the source give for `COc1cc(F)ccc1-c1ccnc2nc(C3CCCCC3)nn12` here?
A: inconclusive: 70.8 µM [inhibitor, partial curve, poor fit]

Q: For `Cc1ccc(-c2nnc3ccc(N(C)c4cccc(C)c4)nn23)nc1`, which Potency is on record?
A: inconclusive: 22.4 µM [inhibitor, full curve]

Q: With `Cc1ccc(CC(=O)Nc2cccc(-c3nnc4n3CCCC4)c2)cc1` as the compound, how does the Potency read?
A: inconclusive: 44.7 µM [inhibitor, partial curve]

Q: Which Potency does the source give for `CC(C)NC(=O)N1CCN(c2ccc3nnc(C4CC4)n3n2)CC1` here?
A: inconclusive: 100 µM [inhibitor, partial curve, poor fit]

Q: With `O=C(O)CCn1ncc2cc(OC3CCN(C(=O)c4cc(F)ccc4Cl)CC3)ccc21` as the compound, how does the Potency read?
A: inconclusive: 39.8 µM [inhibitor, partial curve, poor fit]

Q: Which Potency does the source give for `COc1ccccc1-c1cccc(CN2CCC(N[S+](=O)([O-])c3cccs3)CC2)c1` here?
A: inconclusive: 50.1 µM [inhibitor, partial curve, poor fit]

Q: Which Potency does the source give for `COc1ccc(C(=O)N2CCC(N3C(=O)c4c(c(C)nn4-c4ccccc4)C3C(C)C)CC2)cc1` (configuration not stated) here?
A: inactive

Q: With `Cc1cccnc1CN1CCN2C(=O)N(Cc3ccc(F)cc3)C[C@H]2C1` as the compound, how does the Potency read?
A: inconclusive: 22.4 µM [inhibitor, full curve, poor fit]

Q: For `COCCN1CCNc2cc(NCc3ccccc3)ncc2C1`, which Potency is on record?
A: inconclusive: 22.4 µM [inhibitor, full curve]

Q: For `COc1cccc(NC(=O)N[C@H]2C[C@@H](c3nc(-c4ccc(OC(F)(F)F)cc4)no3)N(C)C2)c1`, which Potency is on record?
A: inconclusive: 39.8 µM [inhibitor, partial curve, poor fit]

Q: Which Potency does the source give for `CCc1ccc(C(=O)N2CCC(c3n[nH]c(=O)n3Cc3ccc(C)cc3)CC2)cc1` here?
A: inconclusive: 44.7 µM [inhibitor, partial curve, poor fit]

Q: For `N#Cc1ccccc1CN1CCNc2nc(CN3CCOCC3)n(Cc3ccccc3)c2C1=O`, which Potency is on record?
A: inconclusive: 11.2 µM [inhibitor, partial curve, poor fit]

Q: With `COc1ccc(C(=O)N2CCc3ccc(C(=O)NCCC(C)C)cc32)cc1` as the compound, how does the Potency read?
A: inconclusive: 50.1 µM [inhibitor, partial curve, poor fit]

Q: For `CC(C)CN(C)C(=O)c1cc(-c2cnn(C(C)C)c2)nc2cc(F)ccc12`, which Potency is on record?
A: inconclusive: 44.7 µM [inhibitor, partial curve, poor fit]

Q: With `COc1ccc(-c2cc(N3CCN(C(=O)c4c[nH]c5ccccc45)CC3)n[nH]2)cc1` as the compound, how does the Potency read?
A: active: 25.1 µM

Q: Which Potency does the source give for `O=C(CCc1ccccc1)N1CCC[C@H]1c1nc(-c2ccccc2Cl)no1` here?
A: inconclusive: 70.8 µM [inhibitor, single point]

Q: For `CCc1cccc(NC(=O)C2CCN(C(=O)c3ncn4c3COC(c3ccc(F)cc3)C4)CC2)c1` (configuration not stated), which Potency is on record?
A: inactive

Q: Which Potency does the source give for `CC(C)C[C@@H]1N[C@H](C(=O)NCC2CC2)Cc2cn(Cc3cccnc3)c3cccc1c23` here?
A: inconclusive: 56.2 µM [inhibitor, partial curve, poor fit]

Q: Which Potency does the source give for `COc1ccc2nc3n(c2c1)[C@@H](CNCc1ccccc1)COC3` here?
A: inconclusive: 44.7 µM [inhibitor, full curve]

Q: With `COc1ccc(CCNC(=O)c2nc3cccnc3n(CC(C)C)c2=O)cc1` as the compound, how does the Potency read?
A: active: 44.7 µM

Q: For `OCc1ccc(-c2cc(-c3cccnc3)c3cncn3c2)cc1`, which Potency is on record?
A: inconclusive: 79.4 µM [inhibitor, partial curve]

Q: With `Cc1noc(-c2cccc(OC3CN(C(=O)Nc4cccc(F)c4)C3)c2)n1` as the compound, how does the Potency read?
A: inconclusive: 39.8 µM [inhibitor, partial curve, poor fit]

Q: Which Potency does the source give for `COCc1ccc2c(c1)c(OC(C)(C)C(=O)NC(C)C)nn2Cc1cccnc1` here?
A: inconclusive: 63.1 µM [inhibitor, partial curve, poor fit]

Q: For `COCC(=O)N1CCN(C(=O)c2cccc(F)c2)C[C@H]1C(=O)N[C@H](C)C(=O)OC`, which Potency is on record?
A: inactive

Q: Which Potency does the source give for `COc1ccc(-c2cc3c(nc2OC)nc(CC2CC2)n3C)cc1OC` here?
A: inconclusive: 50.1 µM [inhibitor, partial curve, poor fit]

Q: For `CC(C)Oc1ccc2c(NC(=O)c3ccon3)nn(Cc3ccccc3)c2c1`, which Potency is on record?
A: inconclusive: 79.4 µM [inhibitor, partial curve, poor fit]

Q: For `Cc1nc(CN2Cc3nc(-c4ccc5c(c4)OCO5)ccc3OCC2=O)cs1`, which Potency is on record?
A: inconclusive: 56.2 µM [inhibitor, partial curve, poor fit]

Q: Which Potency does the source give for `CC1CCC2(CC1)NC(=O)N(CC(=O)Nc1cccc(C(F)(F)F)c1)C2=O` (configuration not stated) here?
A: inconclusive: 12.6 µM [inhibitor, partial curve, poor fit]

Q: With `COc1ccc(C(=O)N2CCCN(c3nnc4ccc(Cl)cn34)CC2)cn1` as the compound, how does the Potency read?
A: inactive

Q: Which Potency does the source give for `CC(=O)N1CCc2[nH]cnc2C12CCN(Cc1nccn1C)CC2` here?
A: inactive

Q: With `COc1cc(C(=O)NC2CCN(c3cc(-c4cccs4)[nH]n3)CC2)cc(OC)c1OC` as the compound, how does the Potency read?
A: inconclusive: 15.8 µM [inhibitor, full curve, poor fit]

Q: Which Potency does the source give for `CCOc1ccccc1C1NC(=O)N(CC(=O)Nc2cccc(C(F)(F)F)c2)C2=C1C(=O)OC2` (configuration not stated) here?
A: active: 44.7 µM

Q: For `CN(c1ccccc1)c1cc(=O)c2ccnc(-c3ccccc3O)c2o1`, which Potency is on record?
A: inconclusive: 56.2 µM [inhibitor, partial curve, poor fit]

Q: Which Potency does the source give for `CCn1cnnc1-c1nn(C)c2c1CN(C(=O)c1nn(C)c3ccccc13)CC2` here?
A: inconclusive: 44.7 µM [inhibitor, partial curve, poor fit]

Reference: PubChem BioAssay AID1345082 (National Center for Advancing Translational Sciences (NCATS), 2018)
